# Source: article PMC12040169 (PLOS Biology, 2025)
# This is one part of the list.
# Test system: T1, C. trachomatis L2/434/Bu expressing GFP (CTL2-GFP)
# T1 construct: L2/434/Bu GFP intracellular growth in HeLa cells
# Set-up: species or system HeLa; C. trachomatis total inclusion area by high-content imaging, normalised to DMSO
# Settings: total inclusion area; 28.5 h, 10 µM; inhibitor
# Procedure, shortened: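 Imaging read-out: GFP inclusions and Hoechst nuclei captured by high-content imaging after fixation. Inclusion area/number = chlamydial growth; nuclei count = host cell viability. MIC calculated per earlier method.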
row,Structure (SMILES),% of control remaining
1,CC1CCN(C(=O)CSc2ccc3nnc(-c4ccccc4)n3n2)CC1 [CBK287512],84.3389
2,CC(C)C(=O)N1CC2(CCN(CC3COc4ccccc4O3)CC2)c2ccccc21 (stereo not drawn) [CBK143946],85.5719
3,O=C(CSCc1ccc(Cl)cc1Cl)Nc1ccc(O)cc1C(=O)O [CBK275322],95.292
4,Cn1nccc1NS(=O)(=O)c1ccc(F)cc1 [CBK050484],85.1778
5,CN1CCN(c2ccc(NC(=O)c3cccc(-c4cc5ccccc5oc4=O)c3)cc2Cl)CC1 [CBK269689],107.149
6,CC(C)CNc1nccnc1-c1cccc(C=O)c1 [CBK088744],153.438
7,CC1=C[C@@H](CNC(=O)c2ccccc2)[C@H](C(C)C)C[C@H]1CC(=O)O [CBK289213],116.681
8,O=C(Nc1cccc(CCc2ccncc2)c1)C1CC(=O)N(Cc2ccncc2)C1 (stereo not drawn) [CBK286287],105.063
9,CC(=O)c1ccc2c3c(cccc13)CC(N(C)C)C2 (stereo not drawn) [CBK005691S],15.1779
10,CCC(=O)c1cccc2c1NC=C1C(=O)CC(C)(C)CC1=N2 [CBK265821],119.162
11,COc1cc(NS(=O)(=O)c2ccc(NC(=O)c3cccnc3)cc2)ncn1 [CBK268156],69.9847
12,CN1CCCN(c2cncc(-c3ccc(F)c(Cl)c3)n2)CC1 [CBK065297],104.469
13,O=C(CSCc1ccc(Cl)cc1Cl)Nc1c[nH]c(=O)[nH]c1=O [CBK126912],79.5377
14,CC(C)(C)c1ccc(C(=O)N2CCN(C(=O)CN3CCOCC3)C2)cc1 [CBK051554C],56.4422
15,COc1ccc(NC2=NC(=O)CC(C(=O)Nc3ccc(C)c(C)c3)N2)cc1 (stereo not drawn) [CBK269359],92.0372
16,CN1C[C@@H](NC(=O)Nc2ccccc2)C[C@H]1c1nc(-c2cccnc2)no1 [CBK288858],105.684
17,CC(=O)c1sccc1NS(=O)(=O)c1ccc2ccccc2c1 [CBK200042],80.2744
18,COc1ccc2[nH]c3c(c2c1)CCNC31CCN(CC(=O)C(C)(C)C)CC1 [CBK039471],134.006
19,Cc1cccc(-c2csc3c(=O)[nH]c(N4CCC(C(=O)NCc5cccnc5)CC4)nc23)c1 [CBK215624],94.5128
20,CC(C)(C)C(=O)CSc1nnc(-c2ccccn2)s1 [CBK006894],73.0926
21,CCn1cc(S(=O)(=O)N2CCC3(CC2)OCCO3)cn1 [CBK270321],92.9348

row,Structure (SMILES),% of control remaining
1,CNCc1cn(C[C@H]2CC3CCN2C[C@@H]3C(=O)N2CCCC2)nn1 (stereo partly drawn) [CBK289087],88.6063
2,COc1ccccc1-c1c(O)n[nH]c1C(C)C [CBK075133],74.4314
3,CCN(CC)CCN1CCN(c2cc(-c3cc(C(F)(F)F)cc(C(F)(F)F)c3)ncn2)CC1 [CBK091195],121.846
4,O=C(Nc1ccccc1N1CCOCC1)c1ccc(OCc2ccccc2)cc1 [CBK265992],133.185
5,O=C(CN1C(=O)c2ccc([N+](=O)[O-])cc2C1=O)Nc1ccc(O)cc1C(=O)O [CBK263456],106.678
6,COC(=O)c1ccc(F)c(NC(=O)C2CCCC2)c1 [CBK296640],87.963
7,CN(C)CC1CCCN(C(=O)c2cc3cc(Cl)ccc3n2C)C1 (stereo not drawn) [CBK282121],96.2055
8,CC(=O)Nc1ccccc1NC(=O)CCCN1C(=O)CCC1=O [CBK267681],93.0984
9,O=C(CCN1CCN(CCO)CC1)Nc1ccc(F)c(F)c1 [CBK264316],106.181
10,O=C(COc1ccc(-c2ccccc2)cc1)N/N=C/c1ccncc1 [CBK262210],102.47
11,Cn1c(SCC(=O)Nc2c(F)cc(F)cc2Br)nnc1-c1cnccn1 [CBK267584],104.862
12,O=C1c2ccccc2C(=O)N1CCc1c[nH]c2ccc(O)cc12 [CBK086794],101.1
13,Cc1nn(Cc2nnn(CC(=O)O)n2)c(C)c1Br [CBK009457],62.0485
14,COCCOc1ccc(C(=O)N[C@@H]2CNCCC[C@H]2O)cc1 [CBK289071],107.316
15,CN(CC(=O)N1CCCCC1)S(=O)(=O)c1cc(Cl)ccc1Cl [CBK091826],52.4813
16,O=C(O)c1cccc(NC(=O)C2CCCCC2C(=O)O)c1 (stereo not drawn) [CBK261538],103.754
17,CC(C)(O)C#Cc1ccc(C(=O)NC(CSCc2ccccc2)C(=O)O)s1 (stereo not drawn) [CBK267705],111.983
18,CCN1CCN(C(=O)C2CCN(S(=O)(=O)c3ccc(Br)cc3)CC2)CC1 [CBK266881],103.9
19,CCNC(=O)N1C(CC(=O)OCC)C(=O)NC2CCCCC21 (stereo not drawn) [CBK268030],98.0526
20,O=c1[nH]nc2c(N3CCc4ccccc4C3)nccn12 [CBK288497],90.6476
21,Cn1c(SCc2c(Cl)cccc2[N+](=O)[O-])nnc1-c1ccc(NC(=O)c2ccccc2Cl)cc1 [CBK264983],105.823

row,Structure (SMILES),% of control remaining
1,O=C(NCc1nc2ccccc2s1)c1ccc2c(c1)OCCO2 [CBK295325],84.7009
2,O=C(Cc1cccc(O)c1)N1CCCC1c1nc2ccccc2[nH]1 (stereo not drawn) [CBK282346],105.312
3,CCN(CC)CCN1CCN(c2cc(-c3ccsc3)ncn2)CC1 [CBK036973],147.705
4,Cn1ccnc1CN1CCC2(C/C=C/Cc3ccccc3OCC(=O)NCCNC2=O)CC1 [CBK292180],98.4013
5,Brc1cccc(CSc2nnc(COc3ccccc3)n2Cc2ccccc2)c1 [CBK268250],87.2209
6,CN(CCCNC(=O)/C=N/O)CCCC(C)(C)C [CBK288480],56.5694
7,Cn1cc(-c2nc(C3CCCCCN3C(=O)c3cc(Cl)c[nH]3)no2)cn1 (stereo not drawn) [CBK306396],102.019
8,CC(=O)c1ccc(NC(=O)Cn2cnc3c(sc4ncccc43)c2=O)cc1 [CBK287773],93.477
9,O=C(O)CCC(=O)N1CCN(S(=O)(=O)c2ccc(F)cc2)CC1 [CBK286956],93.2194
10,Fc1cccc(-c2nccnc2NCC2CC2)c1 [CBK036767],116.552
11,NS(=O)(=O)c1ccc(CNC(=O)C(Sc2ccccc2)c2ccccc2)cc1 (stereo not drawn) [CBK264355],101.665
12,Cn1ccc(CNCc2c(Br)cc(F)c(F)c2N2CCCCC2)n1 [CBK304763],9.003
13,COc1ccc(C(NC(=O)CCc2ccccc2)c2ccc3cccnc3c2O)cc1 (stereo not drawn) [CBK293942],98.3956
14,Cc1cc(NS(=O)(=O)c2ccc(NC(=O)C(c3ccccc3)c3ccccc3)cc2)no1 [CBK085112],80.5547
15,Cc1nnc(SCC(=O)Nc2cc(C(F)(F)F)ccc2N2CCOCC2)o1 [CBK266815],92.9103
16,O=C(O)C[S+]([O-])c1ccccc1C(=O)O (stereo not drawn) [CBK263244],40.6775
17,Cc1ccccc1C(NC(=O)C1CCN(S(=O)(=O)C(C)C)CC1)c1ccccn1 (stereo not drawn) [CBK059711],93.5051
18,CS(=O)(=O)Nc1ccc(-c2ccsc2)c2ccccc12 [CBK083742],84.652
19,CCOC(=O)CC1SC(NS(=O)(=O)c2ccc(Br)cc2)=NC1=O (stereo not drawn) [CBK014126],105.857
20,Fc1ccc(-c2ccc(Nc3cccnc3)nc2)cc1Cl [CBK037642],108.271
21,O=C(O)CCC(CCC(=O)O)([N+](=O)[O-])[N+](=O)[O-] [CBK260956],97.5423

row,Structure (SMILES),% of control remaining
1,O=C(O)C(Cc1ccccc1)C(C(=O)O)c1ccccc1 (stereo not drawn) [CBK286578],75.944
2,Cc1cc2occ(CC(=O)NCc3cc(C4CC4)[nH]n3)c2cc1C [CBK282576],98.8623
3,O=C(Nc1ccc2oc(-c3cccnc3)nc2c1)c1cccc(-c2cc3ccccc3oc2=O)c1 [CBK268612],105.71
4,COc1ccc(-n2c(S)nnc2-c2cccs2)cc1 [CBK266832],27.1735
5,COc1ccc(CNc2ccc(N3CCOCC3)c(C(=O)O)c2)c(OC)c1 [CBK269860],123.611
6,O=C(O)c1cccc(NS(=O)(=O)c2cccc([N+](=O)[O-])c2)c1 [CBK155711],99.4481
7,N#Cc1ccccc1COC(=O)c1cc(-c2ccc(/C=C/c3nc(O)c([N+](=O)[O-])c(=O)[nH]3)o2)ccc1Cl [CBK269115],78.3716
8,Cc1ccc(SC(C)C(=O)O/N=C(\N)c2ccccn2)cc1 (stereo not drawn) [CBK268567],80.4445
9,Cc1cc(C)nc(-n2ncc(C#N)c2N)n1 [CBK270227],122.445
10,OC[C@H]1CCCN1c1nc(Br)cn2ccnc12 [CBK085496],111.729
11,COC(=O)c1cscc1NC(=O)c1cnc(-c2ccc(Cl)cc2)c(-c2ccco2)c1 [CBK036657],112.373
12,COCCNc1nc2c(c(N3CCCC(C#N)C3)n1)CCNCC2 (stereo not drawn) [CBK307412],86.3156
13,O/N=C1\CSCc2ncccc21 [CBK007234],46.8065
14,CSc1nnc(NS(=O)(=O)c2ccccc2C)s1 [CBK144918],88.4092
15,Cc1csc2nc(CN3CCN(C(=O)c4ccccc4)CC3)cc(=O)n12 [CBK305019],89.2224
16,O=C(NC1CCCC1)c1ccc2c(=O)[nH]cnc2c1 [CBK287990],125.696
17,CC(=O)c1sc(NC(=O)c2ccccc2Oc2ccccc2)nc1C [CBK287314],94.2626
18,C[C@H](Cn1nc2c(cc1=O)CCCCC2)NC(=O)Cc1cccs1 [CBK284548],53.9214
